# Experimental data reported in the supplement of paper PMC8728848.
# Some of the results follow.
# B1: Nc3LysM (protein)
# chain: QFTVPPDTTAEPNTIKTCTWWHVAGSGDSCTSIASTYGITSEQFARWDMETTDSPKNPSVATACKLTVGNSYCIENNFGQDDPPTPSISSSTLIGTATTSTTASTTTGNGISTPTPIQEGMETATTTTSSGNGITTPTPTQAGMETVGNCDRFHLVKSGDQCGTIASTYGITLANFYSWNPAVGTSCQSLWLDTYVCVRTIGFVPPKTTTTTTKKPTSTTSAGGVATPTPTQPGMETVSGCKKFHKGRGNVSTVASGDQCGTIATRYGISLANFYSWNPAVGSSCQTLWLDYYVCVGR
# Tests used:
# Assay in all cases: glycan array binding signal (z-score within array); higher = stronger binding
# Conditions in all cases: glycan notation: IUPAC condensed, linker removed
# [1] = target: Neu5Ac(a2-6)Gal(b1-4)GlcNAc(b1-2)Man(a1-3)[Man(a1-6)]Man(b1-4)GlcNAc(b1-4)GlcNAc
# Procedure, shortened: (§1)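 Arrays were curated from the Consortium for Functional Glycomics database, 3228 in total, and kept only where the protein sequence was available. Binding is expressed as a within-array Z-score. This score was averaged across arrays of the same protein sequence at different concentrations or buffers and across linkers, and negative values can be read as non-binding.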
# [2] = target: Neu5Ac(a2-6)Gal(b1-4)GlcNAc(b1-2)Man(a1-3)[Neu5Ac(a2-3)Gal(b1-4)GlcNAc(b1-2)Man(a1-6)]Man(b1-4)GlcNAc(b1-4)GlcNAc
# Procedure, shortened: as §1
# [3] = target: Neu5Ac(a2-6)Gal(b1-4)GlcNAc(b1-2)Man(a1-3)[Neu5Ac(a2-6)Gal(b1-4)GlcNAc(b1-2)Man(a1-6)]Man(b1-4)GlcNAc(b1-4)GlcNAc
# Procedure, shortened: as §1
# [4] = target: Neu5Ac(a2-6)Gal(b1-4)GlcNAc(b1-2)Man(a1-3)[Neu5Ac(a2-6)Gal(b1-4)GlcNAc(b1-2)Man(a1-6)]Man(b1-4)GlcNAc(b1-4)[Fuc(a1-6)]GlcNAc
# Procedure, shortened: as §1
# [5] = target: Neu5Ac(a2-6)Gal(b1-4)GlcNAc(b1-2)Man(a1-6)Man(b1-4)GlcNAc(b1-4)GlcNAc
# Procedure, shortened: as §1
# [6] = target: Neu5Ac(a2-6)Gal(b1-4)GlcNAc(b1-2)Man(a1-6)[Gal(b1-4)GlcNAc(b1-2)Man(a1-3)]Man(b1-4)GlcNAc(b1-4)GlcNAc
# Procedure, shortened: as §1
# [7] = target: Neu5Ac(a2-6)Gal(b1-4)GlcNAc(b1-2)Man(a1-6)[GlcNAc(b1-2)Man(a1-3)]Man(b1-4)GlcNAc(b1-4)GlcNAc
# Procedure, shortened: as §1
# [8] = target: Neu5Ac(a2-6)Gal(b1-4)GlcNAc(b1-2)Man(a1-6)[Man(a1-3)]Man(b1-4)GlcNAc(b1-4)GlcNAc
# Procedure, shortened: as §1
# [9] = target: Neu5Ac(a2-6)Gal(b1-4)GlcNAc(b1-2)[Neu5Ac(a2-6)Gal(b1-4)GlcNAc(b1-4)]Man(a1-3)[GlcNAc(b1-4)][Neu5Ac(a2-6)Gal(b1-4)GlcNAc(b1-2)[Neu5Ac(a2-6)Gal(b1-4)GlcNAc(b1-6)]Man(a1-6)]Man(b1-4)GlcNAc(b1-4)GlcNAc
# Procedure, shortened: as §1
# [10] = target: Neu5Ac(a2-6)Gal(b1-4)GlcNAc(b1-2)[Neu5Ac(a2-6)Gal(b1-4)GlcNAc(b1-4)]Man(a1-3)[GlcNAc(b1-4)][Neu5Ac(a2-6)Gal(b1-4)GlcNAc(b1-4)Man(a1-6)]Man(b1-4)GlcNAc(b1-4)GlcNAc
# Procedure, shortened: as §1
# [11] = target: Neu5Ac(a2-6)Gal(b1-4)GlcNAc(b1-2)[Neu5Ac(a2-6)Gal(b1-4)GlcNAc(b1-6)]Man(a1-6)[Neu5Ac(a2-6)Gal(b1-4)GlcNAc(b1-2)Man(a1-3)][GlcNAc(b1-4)]Man(b1-4)GlcNAc(b1-4)GlcNAc
# Procedure, shortened: as §1
# [12] = target: Neu5Ac(a2-6)Gal(b1-4)GlcNAc(b1-3)Gal(b1-3)GlcNAc
# Procedure, shortened: as §1
# [13] = target: Neu5Ac(a2-6)Gal(b1-4)GlcNAc(b1-3)Gal(b1-4)GlcNAc
# Procedure, shortened: as §1
# [14] = target: Neu5Ac(a2-6)Gal(b1-4)GlcNAc(b1-3)Gal(b1-4)GlcNAc(b1-2)Man(a1-3)[Neu5Ac(a2-6)Gal(b1-4)GlcNAc(b1-3)Gal(b1-4)GlcNAc(b1-2)Man(a1-6)]GalNAc
# Procedure, shortened: as §1
# [15] = target: Neu5Ac(a2-6)Gal(b1-4)GlcNAc(b1-3)Gal(b1-4)GlcNAc(b1-3)Gal(b1-4)GlcNAc
# Procedure, shortened: as §1
# [16] = target: Neu5Ac(a2-6)Gal(b1-4)GlcNAc(b1-3)Gal(b1-4)GlcNAc(b1-3)Gal(b1-4)GlcNAc(b1-2)Man(a1-3)[Neu5Ac(a2-6)Gal(b1-4)GlcNAc(b1-3)Gal(b1-4)GlcNAc(b1-3)Gal(b1-4)GlcNAc(b1-2)Man(a1-6)]GalNAc
# Procedure, shortened: as §1
# [17] = target: Neu5Ac(a2-6)Gal(b1-4)GlcNAc(b1-3)Gal(b1-4)GlcNAc(b1-3)GalNAc
# Procedure, shortened: as §1
# [18] = target: Neu5Ac(a2-6)Gal(b1-4)GlcNAc(b1-3)Gal(b1-4)GlcNAc(b1-3)[Neu5Ac(a2-6)Gal(b1-4)GlcNAc(b1-3)Gal(b1-4)GlcNAc(b1-6)]GalNAc
# Procedure, shortened: as §1
# [19] = target: Neu5Ac(a2-6)Gal(b1-4)GlcNAc(b1-3)Gal(b1-4)GlcNAc(b1-6)[Gal(b1-3)]GalNAc
# Procedure, shortened: as §1
# [20] = target: Neu5Ac(a2-6)Gal(b1-4)GlcNAc(b1-3)Gal(b1-4)[Fuc(a1-3)]GlcNAc(b1-3)Gal(b1-4)[Fuc(a1-3)]GlcNAc
# Procedure, shortened: as §1
# [21] = target: Neu5Ac(a2-6)Gal(b1-4)GlcNAc(b1-3)GalNAc
# Procedure, shortened: as §1
# [22] = target: Neu5Ac(a2-6)Gal(b1-4)GlcNAc(b1-3)[Neu5Ac(a2-6)Gal(b1-4)GlcNAc(b1-6)]GalNAc
# Procedure, shortened: as §1
# [23] = target: Neu5Ac(a2-6)Gal(b1-4)GlcNAc(b1-6)GalNAc
# Procedure, shortened: as §1
# [24] = target: Neu5Ac(a2-6)Gal(b1-4)GlcNAc(b1-6)[Gal(b1-3)GlcNAc(b1-3)]Gal(b1-4)Glc
# Procedure, shortened: as §1
# [25] = target: Neu5Ac(a2-6)Gal(b1-4)GlcNAc(b1-6)[Gal(b1-3)]GalNAc
# Procedure, shortened: as §1
# [26] = target: Neu5Ac(a2-6)Gal(b1-4)GlcNAc6S
# Procedure, shortened: as §1
# Neu5Ac(a2-6)GalNAc = target: Neu5Ac(a2-6)GalNAc
# Procedure, shortened: as §1
# [27] = target: Neu5Ac(a2-6)GalNAc(b1-4)GlcNAc
# Procedure, shortened: as §1
# [28] = target: Neu5Ac(a2-6)GalNAc(b1-4)GlcNAc6S
# Procedure, shortened: as §1
# [29] = target: Neu5Ac(a2-6)GlcNAc(b1-4)GlcNAc
# Procedure, shortened: as §1
# [30] = target: Neu5Ac(a2-6)GlcNAc(b1-4)GlcNAc(b1-4)GlcNAc
# Procedure, shortened: as §1
binder,measurement,setting,value
B1,glycan array binding signal (z-score),[1],0.033
same,glycan array binding signal (z-score),[2],-0.15
same,glycan array binding signal (z-score),[3],-0.212
same,glycan array binding signal (z-score),[4],0.13
same,glycan array binding signal (z-score),[5],0.046
same,glycan array binding signal (z-score),[6],-0.163
same,glycan array binding signal (z-score),[7],0.31
same,glycan array binding signal (z-score),[8],0.07
same,glycan array binding signal (z-score),[9],-0.126
same,glycan array binding signal (z-score),[10],-0.235
same,glycan array binding signal (z-score),[11],-0.072
same,glycan array binding signal (z-score),[12],-0.049
same,glycan array binding signal (z-score),[13],-0.033
same,glycan array binding signal (z-score),[14],0.031
same,glycan array binding signal (z-score),[15],0.167
same,glycan array binding signal (z-score),[16],-0.155
same,glycan array binding signal (z-score),[17],-0.242
same,glycan array binding signal (z-score),[18],0.111
same,glycan array binding signal (z-score),[19],-0.099
same,glycan array binding signal (z-score),[20],-0.175
same,glycan array binding signal (z-score),[21],-0.141
same,glycan array binding signal (z-score),[22],-0.01
same,glycan array binding signal (z-score),[23],0.198
same,glycan array binding signal (z-score),[24],0.065
same,glycan array binding signal (z-score),[25],0.063
same,glycan array binding signal (z-score),[26],-0.183
same,glycan array binding signal (z-score),Neu5Ac(a2-6)GalNAc,0.071
same,glycan array binding signal (z-score),[27],-0.056
same,glycan array binding signal (z-score),[28],-0.194
same,glycan array binding signal (z-score),[29],-0.086
same,glycan array binding signal (z-score),[30],-0.143
